{"source": "PubChem BioAssay AID686979", "about": "(National Center for Advancing Translational Sciences (NCATS), 2013)", "note": "In all, about 420,000 compounds went through this assay and about 50,000 (12%) were called active. The inconclusive results got no clear call from the source; some entries with a clear call stand among them for comparison. The call rests on the fitted dose curve; in most records, active means well fitted inhibition curve with a large enough effect; inconclusive means small, poorly fitted or top-dose-only effect; inactive means flat fitted curve, though single readings scatter. Potencies of inconclusive entries are left out as doubtful fits. Potency means the concentration at half of the fitted maximal effect; tags describe the fitted curve by direction and shape."}
{"experiment": "qHTS for Inhibitors of human tyrosyl-DNA phosphodiesterase 1 (TDP1): qHTS in cells in presence of CPT; further: nearly all actives have a fitted effect of over 55% in size", "conditions": "chicken DT40 Tdp1-/-;hTDP1 cells + 20 nM CPT, ATP luminescence, 48 h; series mostly up to 46.2 µM", "summary_of_the_method": "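Chicken DT40 Tdp1-/- cells stably complemented with human TDP1 were seeded at 400 cells/well in medium containing 20 nM camptothecin, exposed to pin-transferred compounds, and grown at 37 °C for at least 48 hr. Viability was read as ATP luminescence.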"}
{"compound": "N/C(Cc1ccc([N+](=O)[O-])cc1)=N\\OC(=O)CC1CCCCC1", "Potency": "inconclusive [inhibitor, partial curve]"}
{"compound": "CC(C)CC1C(=O)N(Cc2cn(CCC3OCCCO3)nn2)CCS(=O)(=O)N1Cc1ccc(-c2ccc(Cl)nc2)cc1", "note": "(configuration not stated)", "Potency": "inconclusive [inhibitor, single point]"}
{"compound": "CCc1ccc(NC(=O)C(C)OC(=O)/C=C/c2ccc(O)c(OC)c2)cc1", "note": "(configuration not stated)", "Potency": "inconclusive [inhibitor, single point]"}
{"compound": "CCN(Cc1ccccc1)C(=O)c1ccc(CNS(=O)(=O)c2ccc(C)cc2)cc1", "Potency": "inconclusive [inhibitor, single point]"}
{"compound": "COc1cccc(/C=C/C(=O)Nc2cccc(C(C)=O)c2)c1OC", "Potency": "inconclusive [inhibitor, single point]"}
{"compound": "Cc1cccc2nc(-c3cccnc3)c(Nc3ccc(C(C)C)cc3)n12", "Potency": "inconclusive [inhibitor, single point]"}
{"compound": "CCOc1ccccc1NC(=O)N1CCCC1C(=O)NCc1cccs1", "note": "(configuration not stated)", "Potency": "inconclusive [inhibitor, single point]"}
{"compound": "CCOc1ccc(CN2CCN(Cc3[nH]c4ccccc4c3C)CC2CCO)cc1", "note": "(configuration not stated)", "Potency": "inconclusive [inhibitor, single point]"}
{"compound": "O=C(c1csc2c1CCCC2)N1CCN(c2ccc(F)cc2)CC1", "Potency": "inconclusive [inhibitor, single point]"}
{"compound": "O=C(Nc1ccc(F)cc1)N(Cc1cccs1)Cc1cc2cc3c(cc2[nH]c1=O)OCO3", "Potency": "inconclusive [inhibitor, single point]"}
{"compound": "COc1ccc(NC(=O)C2=C(C)Nc3nc(SCc4ccccc4C)nn3C2c2ccc(Br)cc2)cc1", "note": "(configuration not stated)", "Potency": "inconclusive [inhibitor, single point]"}
{"compound": "COc1ccc(-c2cc(C(F)(F)F)c(C#N)c(SCC(=O)Nc3ccc(C)cc3)n2)cc1", "Potency": "inconclusive [inhibitor, single point]"}
{"compound": "NC1(C(=O)O)CCCC1", "Potency": "inactive"}
{"compound": "COc1ccc(-c2cn3cccnc3n2)cc1F", "Potency": "inactive"}
{"compound": "CCOC(=O)C1=CN(Cc2ccco2)S(=O)(=O)N(C)C1CC", "note": "(configuration not stated)", "Potency": "inconclusive [inhibitor, partial curve]"}
{"compound": "O=C(NC1CC1)C1=C[C@H](C2CCCCC2)C[C@H](OCCCCO)O1", "Potency": "inconclusive [inhibitor, single point]"}
{"compound": "COc1cc(NC(=O)c2ccc(Cl)cc2)c(OC)cc1NC(=O)CN1CCOCC1", "Potency": "inconclusive [inhibitor, single point]"}
